According to the supplement of paper PMC10126150:
Values marked as one replicate rest on one cluster of the flow cell; about a third of the high ones do not repeat.

These sequences were tested on ATP (assay: switch fluorescence ratio, 500 uM ATP over buffer (Cy3 cluster intensity, sum of 5 cycles each) (fold (ratio)); higher = stronger signal-on switching upon ATP binding; sequences stand for … in TCGTCGGCAGCGTCAGATGTGTATAAGAGACAGTTTTTTTTTTTTTTTTTTTTTTTTT…TC). Conditions: aptamer strand: ATP DNA aptamer (quencher-CACCTGGGGGAGTATTGCGGAGGAAGG + anchor), 100 nM annealed; ATP concentration: 500 uM; one replicate.
Procedure, shortened: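 For every switch-domain sequence, the fluorescence ratio is the mean of per-cluster values, each being summed target-cycle Cy3 intensity over summed buffer-cycle Cy3 intensity. Clusters outside 100-1000 RFU were excluded. On a modified Illumina MiSeq flow-cell, the Cy3-labelled switching-strand clusters were annealed to 100 nM quencher-labelled ATP aptamer, imaged in selection buffer and then after 15 min with 500 uM ATP at 22 °C. Five such cycles were run, with NaOH stripping and re-annealing between them.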
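Note: ATP exposure 15 min at 22 °C before imaging.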

Row | Sequence | switch fluorescence ratio
1 | CGATGAGATG | 0.985
2 | CTGCTGTCGG | 0.955
3 | TGTTATGTGT | 1.02
4 | ATGGGGTTAG | 0.979
5 | CCGGGGCTTA | 1.44
6 | TCCCAAAACG | 0.998
7 | CACGAGCGGG | 1.03
8 | TAGCGGGTGA | 1.06
9 | ATGGGATACA | 1.01
10 | AGTTTAGCCG | 1.08
11 | TAACGCCTGT | 0.977
12 | ACGATAGATA | 1.05
13 | TATAGAGAAA | 0.989
14 | TTGTCATCGA | 0.949
15 | TTCAACGAGG | 0.957
16 | ATACTTGCGG | 1.05
17 | ATGTGAAAAC | 1.01
18 | GGTGTTAGTA | 1.04
19 | ATTGTGGTCG | 0.99
20 | GTGTTTTGT | 1.01
21 | GGGATGCAGT | 1.01
22 | CAAGGCTAA | 1.05
23 | TAAAGCCCTT | 1.07
24 | TCTGGAAGCT | 1.01
25 | TACAGCGCGG | 0.969
26 | GCAATTTTCG | 1.09

Row | Sequence | switch fluorescence ratio
27 | TTGCGTCAGA | 0.988
28 | GATGACATAG | 1.03
29 | TCTACTTTTT | 0.995
30 | TGCGTGAGTA | 1.04
31 | AATGCCCAGT | 1.01
32 | TAATACGATA | 1.17
33 | AGCGAATGTG | 1.02
34 | TTCGTGCTCG | 1.02
35 | CGTAGCTGCG | 0.986
36 | GTGGAGCGAC | 1.03
37 | TGTTGTTCCG | 0.979
38 | GTCACGGAGG | 1.01
39 | GCAAGGTGGG | 0.979
40 | CCTAGCGCTC | 2.94
41 | TTGGACTTGT | 0.985
42 | TCGGTGCACC | 1
43 | ACGGCGTAAG | 0.99
44 | TCGACGCGGA | 3.27
45 | GGTTATTCTA | 0.996
46 | ATAAAACATT | 0.974
47 | TAAGGGTCAT | 0.984
48 | AGTCGGTTAT | 1.07
49 | ACTGTCTTAT | 0.963
50 | CGCTCATGCA | 1
51 | GCAGTAAGGC | 1.32
52 | TTTTGCTAAC | 1.02

Row | Sequence | switch fluorescence ratio
53 | ATTTTGTCGA | 0.933
54 | ACGTTGACAT | 1.28
55 | AATGAGTCCT | 1.02
56 | CTGGGGTTG | 0.996
57 | ACTGCCCC | 1.29
58 | AGGGTGCGTA | 1.03
59 | GTGTTATAGA | 1.01
60 | TTAGAGGATA | 0.977
61 | TCTCAGTGAG | 0.987
62 | ATCGCAGAGC | 1.06
63 | GTGACCCATC | 1.05
64 | GGGGGATGCA | 0.936
65 | TATGTTCGAC | 1.01
66 | GTTGTATCT | 0.993
67 | TATTTATCAC | 1.03
68 | AACGACAGCT | 1.1
69 | AGGAACCAAT | 1.02
70 | TGAGGCATTA | 1.06
71 | ACCTTTTTTA | 1.01
72 | AAGTGGCTAT | 0.989
73 | CAAGTTGTCT | 1.06
74 | CGACTGGCTA | 1.5
75 | TAGGAGTGGT | 1.06
76 | AGTTTAGAAA | 1.03
77 | TGTGTGCCCA | 0.966
78 | AATTCGCCCA | 1.03

Row | Sequence | switch fluorescence ratio
79 | TATCGATTTC | 1.05
80 | ATTTGACAAA | 1.01
81 | CGGTCTCCCC | 1.03
82 | ACATAGACGC | 1.14
83 | TGATCAGCTA | 1.01
84 | CAAGGGGTGT | 0.999
85 | GGATGTAATT | 1
86 | TTAGCCCAGA | 1
87 | AGAACTAA | 0.987
88 | AGTACCTTGT | 1.06
89 | AGCGGATGAG | 1.01
90 | GACGGAAGGA | 1.08
91 | TTATATCTCA | 0.999
92 | TTTAAATCTA | 0.988
93 | GTAACCTGCG | 1.24
94 | GCTTTCGCTT | 0.989
95 | TAGGTAGCCT | 1.05
96 | AATTGGAACG | 1.02
97 | TCCTTGAGAT | 1.02
98 | CCACTACGAG | 1.06
99 | GCTAATGGAC | 1.03
100 | CGTACGCGAG | 1.04
101 | GGGGCCGAGT | 0.962
102 | CCGGAAGATG | 1.14
103 | ATTAAGAACT | 0.977
104 | GCCCAGAAA | 1.08

Row | Sequence | switch fluorescence ratio
105 | CTTCTCAGT | 1
106 | CGATTACCTG | 0.994
107 | TAATAACCTA | 1.04
108 | TTACTACTGC | 1.06
109 | TTGAAGTTGA | 0.959
110 | ACTGAACGTG | 1.23
111 | TGGAACAATG | 0.964
112 | TACGATTCCG | 1.01
113 | AAAGTCTTAG | 0.941
114 | CTAAAACAAA | 0.937
115 | TTTGCTTCGG | 1.01
116 | AATTGTCAAG | 1.01
117 | CCAATACCTT | 1.29
118 | GGCTAAACAT | 1.02
119 | TATCAAGGTG | 1.47
120 | AGTGTCGCCA | 0.973
121 | GTTCATGTGG | 0.995
122 | TCTGGAGGTT | 1.04
123 | GCGGAAAAGA | 1
124 | ACCTGGAGCA | 1.21
125 | GTCACGGAAT | 1.07
126 | GCGTCAGCCC | 0.987
127 | TATTTCTTCT | 1.01
128 | TGGCTGCAG | 0.977
129 | GCTGCTTGT | 1.06
130 | CATTAATCGG | 1.01

Row | Sequence | switch fluorescence ratio
131 | CCACTGGTTT | 1.04
132 | GGCCTCTACA | 1.02
133 | ATTTACTTCA | 1.08
134 | CGGAGCAGAT | 7.18
135 | GACCGAGTAT | 1.03
136 | AAAGTTTAGA | 1.01
137 | CCCAACCCCG | 1.05
138 | AGTGTGTCAC | 1.04
139 | GTTAGAGAGA | 1.04
140 | CTTACCTGTT | 1.16
141 | CTCGAACTAG | 1.03
142 | TAGGGCGTTT | 0.99
143 | TACGCAGGT | 1.01
144 | GACCAGGAGA | 1.11
145 | GCTGCCGGTA | 1.04
146 | TATAGAAATC | 0.994
147 | ATGAAGAATA | 1.05
148 | GCGGCAGAA | 1.01
149 | ATAAGTGTGC | 1.04
150 | GGTCGCCGG | 1.01
151 | GGTGGTATG | 1.02
152 | CGAAAATGTC | 1.02
153 | GCGGGACAAA | 1
154 | ACTTATTAAC | 1.03
155 | AGTTGAGGCA | 0.982
156 | TGAACCTTGT | 0.929

Row | Sequence | switch fluorescence ratio
157 | ATGTCCAAAC | 1.06
158 | TTGTTCGGC | 0.982
159 | TTAGGCTATG | 0.965
160 | GCCAAAGCTG | 1.04
161 | AAATCTTCGA | 1.02
162 | ACAAAAGTC | 1.05
163 | TTACTCGGAT | 1.11
164 | CATAAAACCG | 0.992
165 | CTCTTGTCGT | 1.01
166 | TGTGAAATAC | 1.44
167 | TCAGTTCATG | 0.994
168 | GAGTGGACGT | 1.02
169 | TAGCGAGATG | 0.949
170 | GGGGCTTGCT | 1
171 | TGATACTT | 0.989
172 | TGAGAGCTAT | 1.55
173 | AGGTTAGCG | 0.974
174 | GGCAGCTCGC | 0.961
175 | AATCAGATTG | 0.961
176 | AGGATGCTAC | 1.13
177 | CTCGCTACCC | 1.49
178 | ACACTAGTTC | 1.08
179 | CACGCGCTCG | 1.07
180 | ATAGCGTGGT | 1.03
181 | TTATATAATT | 1.01
182 | CTCGGCATCC | 4.09

Row | Sequence | switch fluorescence ratio
183 | TAGTTGCTGC | 0.977
184 | CTAGGTGCCA | 1.08
185 | CTGAAACTCT | 1.05
186 | GATTTTCCTG | 1.01
187 | TAGAGGAGGT | 0.994
188 | CACACAATGG | 1.15
189 | CGTTTCAGCA | 0.971
190 | CACGTAGAGC | 1.05
191 | TTTAAGTCGC | 1.02
192 | GATCGAATTT | 0.978
193 | TTAAGATTAA | 1.01
194 | GGGAATCTCG | 0.969
195 | AGGATCAGGG | 0.973
196 | CCTGGCCTCC | 1.83
197 | AAGCCCGGTG | 2
198 | CCGTGGCGGT | 1.16
199 | GAGTGATGGT | 0.998
200 | TCGTTGCAGC | 0.999
201 | CAGGCGATCT | 1.06
